# Assay results from PubChem BioAssay (NCI).
#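 96-well plates; 48 h exposure; 5 concentrations. Endpoints by linear interpolation between flanking doses. Not reached: highest tested concentration assigned. GI50 is the concentration that inhibits growth by half. At the TGI there is no net growth.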
# System: NCI-H322M lung
# Experiment: inhibition of tumour cell growth, NCI panel, 48 h
smiles,measurement,value
CN(C)CCCNC(=O)c1cccc2nc3ccccc3nc12,TGI,49.7 µM
CCCC(=O)n1[nH]c(=O)n(C(C)(C)C)c1=O,TGI,> 100 µM
CN=c1ss/c(=N\C(=S)N(C)C)n1C1CCCCC1,TGI,> 31.6 µM
CCn1c(SCC(=O)NNC(=S)Nc2ccc(Cl)cc2)nc2ccccc2c1=O,TGI,> 100 µM
CC1(Br)S(=O)(=O)OCCOS1(=O)=O,TGI,> 100 µM
Cc1cc(CN(Cc2ccccc2)Cc2nc3ccccc3[nH]2)c(O)c(CN(Cc2nc3ccccc3[nH]2)Cc2nc3ccccc3[nH]2)c1,TGI,> 100 µM
N#CC12CC=C(c3ccccc3)N=C1NC(c1ccccc1)=CC2 (stereo unspecified),TGI,> 100 µM
CC(=O)OCC1OC(N2C(=O)CC(N)=Nc3ccccc32)C(OC(C)=O)C(OC(C)=O)C1OC(C)=O (stereo unspecified),TGI,> 100 µM
O=C1C=CC(=O)c2c1cc1ccccc1c2O,TGI,33.5 µM
O=C(NCCSSCCNC(=O)/C(Cc1ccc(O)c(Br)c1)=N/O)/C(Cc1ccc(O)c(Br)c1)=N/O,TGI,> 28.1 µM
CC(=O)O[C@@H]1[C@@H](C)[C@]2(CC(c3ccoc3)OC2O)C2CCC3O[C@]3(C)[C@]2(C)[C@@H]1OC(C)=O (stereo partly specified),TGI,> 100 µM
CCN1CCN(CC(=O)Nc2nc3ccc(NCc4ccc(C)cc4)cc3s2)CC1,GI50,5.71 µM
same,TGI,12.1 µM
COc1ccccc1N(C(C)=O)C1=C(Cl)C(=O)c2ccccc2C1=O,GI50,3.26 µM
same,TGI,13.2 µM
COC(=O)c1c2c(c(C)[n+]([O-])c1C)C(=O)C=C(NCc1ccc(Br)cc1)C2=O,GI50,0.546 µM
same,TGI,1.85 µM
Cc1ccc(S(=O)(=O)Nc2cccc(C)c2C)cc1,TGI,> 100 µM
C=CCC1(O)C(=O)OC2C(O)COC21O (stereo unspecified),TGI,> 100 µM
Cc1cn(C2CC(N=[N+]=[N-])C(CO)O2)c(=O)[nH]c1=O (stereo unspecified),GI50,959 µM
same,TGI,> 1000 µM
COc1cc(CC(C)N[C@@H](C)c2ccccc2)cc(OC)c1 (stereo partly specified),TGI,> 100 µM
N#Cc1ccc(N2Cc3cc(Cl)ccc3OC3=C2C(=O)N(Cc2ccc(F)cc2)C3=O)cc1,GI50,8.86 µM
same,TGI,22.2 µM
O=C(N/N=C/c1ccncc1)c1ccc(C(F)(F)F)nc1Nc1cccc(C(F)(F)F)c1,GI50,1.7 µM
same,TGI,7.8 µM
CC(=O)Nc1c(I)c(C(=O)O)c(I)c(N(C)C(C)=O)c1I,GI50,> 100 µM
same,TGI,> 100 µM
COc1cc(CCC(=O)O)c2cc3ccccc3cc2c1O,TGI,> 100 µM
S=C(Nc1ccc(Cl)cc1)SC1CCCCC1,TGI,90.2 µM
N#Cc1c(N)nc2c(N=Nc3ccccc3)c(N)nn2c1Nc1ccccc1,TGI,22.2 µM
C/C(=C\CCc1ccsc1)CC/C=C(\C)CCCN1CCN(CCO)CC1,GI50,5.95 µM
same,TGI,20.5 µM
CCOP(=O)(CCN1CCN(CCCCCOc2cc3c(cc2OC)C(=O)N2CCC[C@H]2C=N3)CC1)OCC,GI50,22.1 µM
same,TGI,56.2 µM
Cc1cc(Br)c2nsnc2c1[N+](=O)[O-],GI50,2.91 µM
same,TGI,10.4 µM
c1ccc2c(c1)ncn2CCn1ccnc1,TGI,> 100 µM
COc1ccc(/C=N/NS(=O)(=O)c2ccc(/C=C3\NC(=O)N(C)C3=O)cc2)cc1,TGI,> 100 µM
c1csc(-c2cscc2-c2cccs2)c1,TGI,> 100 µM
C=C(CS(=O)(=O)c1ccccc1)C(=O)OCC,TGI,30.7 µM
c1cc2ccc3cc2cc1CNCCOCCNCc1ccc2ccc(cc2c1)CNCCOCCNC3,GI50,> 100 µM
same,TGI,> 100 µM
CC1C2CC(CC2O)C1(C)C (stereo unspecified),TGI,> 100 µM
COC(=O)NN/C=C(\C=Nc1ccccc1)[N+](=O)[O-],TGI,> 100 µM
Cc1cc(C(=O)N2CCN(C)CC2)c2c(=O)n(-c3ccccc3)c(=O)n(CC(O)CN3CCN(c4ncccn4)CC3)c2n1 (stereo unspecified),GI50,> 100 µM
same,TGI,> 100 µM
C[C@@H](Oc1cc(-c2cnn(C3CC4(CNC4)C3)c2)cnc1N)c1c(Cl)ccc(F)c1Cl,GI50,10.1 µM
same,TGI,23.2 µM
Cc1ccc(SC2C(C)(C)N(C(C)C)P2(=O)N(C(C)C)C(C)C)cc1 (stereo unspecified),TGI,> 100 µM
CC(C)CC(NC=O)C(=O)NC(Cc1ccccc1)NC(=O)CNC(=O)C(C)NC(=O)OC(C)(C)C (stereo unspecified),TGI,> 100 µM
C=C1C(=O)O[C@H]2[C@H]1CC/C(COC(=O)c1cccc3ccccc13)=C\CC[C@@]1(C)O[C@@H]21,GI50,2.15 µM
same,TGI,4.98 µM
NC(=O)c1ccccc1NC(=O)C(=O)Nc1n[nH]c(N)n1,TGI,> 100 µM
CC1(C)C(=O)CCC(=O)C(C)(C)C2=CC=C(O2)C(C)(C)C(=O)CCC(=O)C(C)(C)C2=CC=C1O2,TGI,> 100 µM
COc1ccccc1/C=C1\N=C(C)OC1=O,TGI,> 100 µM
c1ccc(-c2sc(-c3ccccc3)c3c2C2CCC3C2)cc1,TGI,> 100 µM
COc1ccc(N2C(=O)C(C#N)=C(SC)C(C#N)C2=O)cc1 (stereo unspecified),TGI,> 100 µM
S=C1NCCN1C(=S)NC1CCCCC1,TGI,> 100 µM
Cc1ccc(N(C)S(=O)(=O)c2ccccc2)cc1,TGI,> 100 µM
Cc1ccc(O)c(-c2cc(-c3ccccc3)nc(/N=C\c3ccccc3)n2)c1,TGI,> 100 µM
CCOC(=O)C1=C(C)NC(C)=C(C(=O)OCC)C1c1cc(Br)c(O)c(OC)c1,GI50,8.69 µM
same,TGI,31.6 µM
CC(=O)N1N=C(c2ccccc2Nc2ccccc2C2=NN(C(C)=O)C(c3ccccc3)O2)OC1c1ccccc1 (stereo unspecified),TGI,> 100 µM
NS(=O)(=O)c1cccc(-c2cc3ccncc3cc2OCc2ccccc2)c1,GI50,> 23.3 µM
same,TGI,> 25 µM
